# Experimental data: PubChem BioAssay (NCATS)
# Where “and” joins values, the source holds several entries; their conditions need not be identical. Equal values may be shown once. The shares of active, inactive and inconclusive entries below differ from those in the screen. For some of these results: A potency beside an inconclusive call is a rough fit, not a confirmed value. Calls of active or inactive are those of the source. Unless noted, calls come from the whole dose curve; as a rule, active = well fitted curve in the direction sought with a large enough effect; inconclusive = small, poorly fitted or top-dose-only effect, or another doubt; inactive = no such curve, though single readings can be large; an effect the other way counts as inactive or inconclusive.
# Key:
# [1] = target: Chromobox protein homolog 1 (Homo sapiens) (UniProt P83916); assay: qHTS Validation Assay for Inhibitors of HP1-beta Chromodomain Interactions with Methylated Histone Tails (AID 488953); note: nearly all actives have a fitted effect of over 50% in size; note: potency is the fitted concentration of half-maximal effect;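 for activity change, negative = inhibition: loss of AlphaScreen luminescence from HP1-beta binding biotinylated H3K9me3 peptide; % is set by controls: 0 for no effect and ±100 for the full control effect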
# Summary of the method: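 50 nM HP1-beta + 50 nM biotin-H3(1-18)K9me3, PBS pH 7.4, 0.01% Tween-20, 30 min RT; compound added, 30 min RT; AlphaScreen beads 10 ug/mL final, 30 min dark; luminescence read.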
# [2] = qHTS for differential inhibitors of proliferation of Plasmodium falciparum line 3D7 (AID 1876); note: potency is the fitted concentration of half-maximal effect
# [3] = qHTS for differential inhibitors of proliferation of Plasmodium falciparum line Dd2 (AID 1882); conditions: Potency: Plasmodium falciparum Dd2 proliferation inhibition; note: potency is the fitted concentration of half-maximal effect; nearly all actives have a fitted effect of over 65% in size
# Summary of the method: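 Dd2-infected erythrocytes (0.3% parasitemia, 2.5% hematocrit final) incubated with compound 72 h at 37 C, 5% CO2; lysed with saponin/Triton buffer containing SYBR Green I, incubated overnight in the dark, then read by fluorescence (485/535 nm). Normalized to 0.29 uM artemisinin and DMSO.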
# [4] = qHTS for differential inhibitors of proliferation of Plasmodium falciparum line HB3 (AID 1886); conditions: Potency: Plasmodium falciparum HB3 proliferation inhibition;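 note: parasites grown with compound for 72 h before SYBR Green readout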; note: potency is the fitted concentration of half-maximal effect;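 for activity change, negative = inhibition: plate controls were vehicle for no effect and reference inhibitor for full effect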
# [5] = Quantitative high throughput screen for delayed death inhibitors of the malarial parasite plastid, 96 hour incubation (AID 488745); note: potency is the fitted concentration of half-maximal effect; nearly all actives have a fitted effect of over 70% in size
# Summary of the method: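 Infected erythrocytes were added to compound in Albumax-supplemented RPMI 1640 at 0.1% parasitemia and 2% hematocrit (final), incubated 96 h at 37 C under 5% CO2, then luciferase reagent was added and luminescence measured.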
# [6] = qHTS for Inhibitors of ATXN expression: Validation (AID 588378); note: potency is the fitted concentration of half-maximal effect; nearly all actives have a fitted effect of over 75% in size
# Summary of the method: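 Validation of ATXN2 expression inhibitors uses a cell-based luciferase fusion reporter in HEK293 cells, with 24 h compound exposure and paired viability (fluorescence) and reporter (luminescence) end-point reads.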
# [7] = Cell Viability - LYMP2-023 (AID 975);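 note: cells exposed to compound for 24 hours at 37 °C; nearly all actives have a fitted effect of over 55% in size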; note: potency is the fitted concentration of half-maximal effect;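 for activity change, negative = cytotoxicity: cellular ATP measured by luciferase luminescence as viability proxy; plate controls were DMSO only for no effect and 92 µM tetraoctylammonium bromide control for full effect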
# Summary of the method: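 2500 cells/well, 5 hr 37 C; cpd 24 hr 37 C; CellTiter-Glo, 30 min RT; luminescence. qHTS conc-response, Hill fit -> AC50. Pos ctrl tetraoctylammonium bromide.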
# [8] = Cell Viability - LYMP2-022 (AID 987); conditions: LYMP2-022 lymphoblastoid cell viability; viability change, negative = cytotoxic: at 92.2 µM (top of the series); note: nearly all actives have a fitted effect of over 55% in size; note: potency is the fitted concentration of half-maximal effect;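 for viability change, negative = cytotoxic: 0% = DMSO alone and full effect = tetraoctylammonium bromide at 92 µM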
# Summary of the method: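 qHTS: human lymphoblastoid cells 2500/well; 5 hr 37 C; cpd added; 24 hr 37 C; CellTiter-Glo, 30 min RT; luminescence. AC50 via Hill fit; tetraoctylammonium bromide positive ctrl.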
# [9] = Cell Viability - LYMP2-024 (AID 988); note: potency is the fitted concentration of half-maximal effect; nearly all actives have a fitted effect of over 60% in size
# Summary of the method: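 Steps: seed 2500 cells/well, 5 hr 37 C; add compound, 24 hr 37 C; add CellTiter-Glo, 30 min room temperature; read luminescence. AC50 derived by Hill modelling of concentration-dependent ATP loss.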
# [10] = target: Bile acid receptor (Homo sapiens) (UniProt Q96RI1); assay: qHTS assay for small molecule antagonists of farnesoid X receptor signaling (AID 588526; calls by dose curve; note: potency is the fitted concentration of half-maximal effect; for activity change, negative = inhibition: % is set by controls: 0 for no effect and ±100 for the full control effect); conditions: HEK293T FXR-UAS-bla, beta-lactamase ratio, antagonist mode; activity change, negative = inhibition: at 76.7 µM (top of the series)
# Summary of the method: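 Beta-lactamase reporter antagonist mode: HEK293T FXR-UAS-bla cells, titrated compound, CDCA stimulation, 16 h 37 C, CCF4 dye 2 h RT. Data normalized to CDCA 50 uM and DMSO; Hill-fit IC50.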
# [11] = Cell Viability - HepG2 (AID 433; calls by dose curve;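 note: potency is the fitted concentration of half-maximal effect; potency for ATP loss meaning cytotoxicity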); conditions: qHTS
# Summary of the method: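 Cytotoxicity is scored as loss of intracellular ATP in HepG2 cells exposed to compounds for 40 h. Concentration-response curves, normalized to DMSO and 100 uM tamoxifen, give AC50 values.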
# [12] = Cell Viability - LYMP2-021 (AID 974);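 note: compound exposure lasts 24 hours at 37 °C; nearly all actives have a fitted effect of over 55% in size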; note: potency is the fitted concentration of half-maximal effect; for activity change, negative = cytotoxicity: % is set by controls: 0 for no effect and ±100 for the full control effect
# Summary of the method: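 Plate 2500 lymphoblastoid cells per well and incubate 5 hr at 37 C. Add compounds over a concentration range and incubate 24 hr at 37 C. Add CellTiter-Glo, wait 30 min at room temperature, read luminescence.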
# [13] = target: Bile acid receptor (Homo sapiens) (UniProt Q96RI1); assay: qHTS assay for small molecule agonists of farnesoid X receptor signaling (AID 588527; calls by dose curve;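 note: 0% = vehicle basal and 100% = reference agonist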); conditions: HEK293T FXR-UAS-bla, beta-lactamase ratio, 16 h; activation: stronger effect = higher value
# Summary of the method: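 Read-out: beta-lactamase reporter fluorescence with CCF4 substrate in GeneBLAzer FXR-UAS-bla HEK293T cells, after 16 h compound exposure at 37 C. Response scaled between DMSO basal (0%) and chenodeoxycholic acid at 100 uM (100%).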
# [14] = target: Nuclear receptor ROR-gamma (Homo sapiens) (UniProt P51449); assay: qHTS assay for small molecule antagonists of the retinoid-related orphan receptor gamma (ROR-gamma) signaling pathway (AID 651802); note: potency is the fitted concentration of half-maximal effect; nearly all actives have a fitted effect of over 60% in size
# Summary of the method: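 CHO, TET-inducible ROR + RORE-LUC reporter, 1536-well qHTS. Compound pinned, doxycycline added, 16hr 37C/5% CO2. ONE-Glo, 30 min RT, luminescence; signal drop scored as antagonism.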
# [15] = Primary qHTS for Huh7 cytotoxicity: counterscreen for inhibitors of MERS-S pseudotyped particle cell entry (AID 1479147; calls by dose curve); conditions: activity change, negative = cytotoxicity: at 57.1 µM (top of the series) unless noted
# [16] = qHTS for Inhibitors of the Functional Ribonucleoprotein Complex (vRNP) of Lymphocytic Choriomeningitis Arenaviruses (LCMV): Viability assay - alamar blue signal for LCMV Primary Screen (AID 1347085; calls by dose curve; tested in HEK293 reporter line; note: nearly all actives have a fitted effect of over 80% in size; note: potency is the fitted concentration of half-maximal effect; for activity change, negative = lower viability: % is set by controls: 0 for no effect and ±100 for the full control effect); conditions: alamar blue viability counter-screen, LCMV vRNP screen cells; activity change, negative = lower viability: at 57.5 µM (top of the series)
# [17] = Cell Viability - LYMP2-013 (AID 970); conditions: LYMP2-013 lymphoblastoid cells viability; activity change, negative = cytotoxic: at 92.2 µM (top of the series);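 note: cells exposed to compound for 24 h at 37 °C; nearly all actives have a fitted effect of over 55% in size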; note: potency is the fitted concentration of half-maximal effect;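 for activity change, negative = cytotoxic: 0% = DMSO only and full inhibition = tetraoctylammonium bromide control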
# Summary of the method: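 qHTS; 2500 lymphoblastoid cells/well; 5 hr 37 C settle; cpd 24 hr 37 C; CellTiter-Glo, 30 min RT; luminescence. AC50 = Hill fit.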
# [18] = target: Cytochrome P450 1A2 (Homo sapiens) (UniProt P05177); assay: p450-cyp1a2 (AID 410; calls by dose curve; note: potency is the fitted concentration of half-maximal effect;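 for activity change, negative = inhibition: top concentration of the series differs between compounds; -100% = full effect of reference inhibitor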)
# Summary of the method: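 Luminescent readout of luciferin formed from Luciferin-ME by human CYP1A2; data normalized against complete inhibition by 57 uM furafylline. Enzyme 20nM, substrate 100uM at Km, 100mM KPO4 buffer, 60 min reaction at room temperature.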
# [19] = target: Muscarinic acetylcholine receptor M1 (Rattus norvegicus) (UniProt P08482); assay: qHTS Assay for Antagonists of Acetylcholine Muscarinic M1 Receptor: Kinetic Measurement of Intracellular Calcium Response (AID 943); note: potency is the fitted concentration of half-maximal effect; nearly all actives have a fitted effect of over 75% in size
# Summary of the method: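 Rat M1-CHO cells, 2000/well, overnight → Fluo-4 no-wash dye with probenecid, 1 h 37C → compound 10 min, room temp → basal read 6 s → carbachol EC80 (100 nM) → 4 min kinetic read; peak/basal.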
# [20] = qHTS Assay for Modulators of Human Peripheral Myelin Protein 22 (PMP22) Expression/Activity (AID 1967; active = well fitted curve in the direction sought with a large enough effect in the signal ratio; inconclusive = small, poorly fitted or top-dose-only effect, or effect the other way, or a change in a side signal; inactive = no such curve, though single readings can be large or run the other way; the % refers to the signal ratio;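 note: 0% = untreated cells and 100% end not stated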); conditions: Cell-based PMP22 reporter, dual-color luciferase ratio, mouse Pmp22 promoter in mouse Schwann cells; activity change (ratio): at 115 µM (top of the series)
# Summary of the method: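 Quantitative HTS in a mouse Schwann cell line expressing dual click beetle luciferases: Pmp22 promoter (green) and control EF-alpha promoter (red). After 24h treatment, corrected green/red signal ratio gave %Activity relative to untreated cells.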
# Tags give direction and shape of the fitted curve.
# Chain of UniProt P08482 (P08482 whole entry, looked up): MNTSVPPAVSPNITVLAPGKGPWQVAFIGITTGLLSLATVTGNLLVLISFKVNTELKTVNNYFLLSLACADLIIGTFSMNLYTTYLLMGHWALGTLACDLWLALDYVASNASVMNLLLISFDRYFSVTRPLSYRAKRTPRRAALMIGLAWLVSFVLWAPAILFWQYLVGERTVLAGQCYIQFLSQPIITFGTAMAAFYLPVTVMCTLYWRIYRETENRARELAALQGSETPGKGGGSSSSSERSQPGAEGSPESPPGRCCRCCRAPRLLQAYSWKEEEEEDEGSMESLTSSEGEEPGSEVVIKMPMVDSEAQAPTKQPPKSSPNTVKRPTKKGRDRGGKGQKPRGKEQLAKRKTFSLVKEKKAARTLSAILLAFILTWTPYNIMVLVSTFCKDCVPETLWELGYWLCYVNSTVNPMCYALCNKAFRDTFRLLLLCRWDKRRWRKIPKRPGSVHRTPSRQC
# Chain of UniProt P05177 (P05177 whole entry, looked up): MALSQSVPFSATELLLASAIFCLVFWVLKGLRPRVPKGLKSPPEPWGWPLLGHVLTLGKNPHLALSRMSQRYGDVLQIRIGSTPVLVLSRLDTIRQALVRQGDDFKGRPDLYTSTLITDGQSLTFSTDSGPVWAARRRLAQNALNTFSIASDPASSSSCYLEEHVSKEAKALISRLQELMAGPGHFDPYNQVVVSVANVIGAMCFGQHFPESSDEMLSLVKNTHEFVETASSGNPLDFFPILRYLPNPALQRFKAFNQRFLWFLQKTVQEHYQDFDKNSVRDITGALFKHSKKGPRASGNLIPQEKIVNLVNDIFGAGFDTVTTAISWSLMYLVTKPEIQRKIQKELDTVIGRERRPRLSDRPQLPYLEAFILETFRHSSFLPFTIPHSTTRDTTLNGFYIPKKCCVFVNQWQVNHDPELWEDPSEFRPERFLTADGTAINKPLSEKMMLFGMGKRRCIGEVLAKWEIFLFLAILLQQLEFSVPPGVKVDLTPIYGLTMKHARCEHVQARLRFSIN
# Chain of UniProt P51449 (P51449 whole entry, looked up): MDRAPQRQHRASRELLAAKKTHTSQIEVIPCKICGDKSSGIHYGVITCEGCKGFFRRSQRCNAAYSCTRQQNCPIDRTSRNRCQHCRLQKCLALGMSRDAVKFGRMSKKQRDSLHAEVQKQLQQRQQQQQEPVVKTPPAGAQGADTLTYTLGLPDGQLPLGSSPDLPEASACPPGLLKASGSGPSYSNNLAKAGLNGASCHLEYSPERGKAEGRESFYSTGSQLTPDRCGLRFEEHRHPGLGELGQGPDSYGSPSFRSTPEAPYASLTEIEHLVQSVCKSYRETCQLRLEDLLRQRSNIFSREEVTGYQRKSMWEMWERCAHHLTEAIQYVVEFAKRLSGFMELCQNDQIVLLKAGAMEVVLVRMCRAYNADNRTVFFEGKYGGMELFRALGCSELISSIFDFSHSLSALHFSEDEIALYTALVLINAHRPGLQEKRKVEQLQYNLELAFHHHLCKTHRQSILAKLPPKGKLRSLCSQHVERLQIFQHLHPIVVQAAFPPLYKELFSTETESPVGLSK
# Chain of UniProt P83916 (P83916 whole entry, looked up): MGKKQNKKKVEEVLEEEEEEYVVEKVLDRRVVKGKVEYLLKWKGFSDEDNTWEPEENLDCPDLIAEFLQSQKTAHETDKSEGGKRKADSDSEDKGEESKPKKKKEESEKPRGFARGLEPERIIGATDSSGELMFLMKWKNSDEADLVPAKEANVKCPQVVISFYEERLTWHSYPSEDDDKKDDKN
smiles,measurement,setting,value
C=C(C)[C@H]1CN[C@H](C(=O)O)[C@H]1CC(=O)O,Potency,[1],inactive
CN[C@@H](C)[C@H](O)c1ccccc1,Potency,[2],"inconclusive: 11.2 µM [inhibitor, single point]"
same,Potency,[3],"inconclusive: 15.8 µM [inhibitor, single point]"
same,Potency,[4],"inconclusive: 15.8 µM [inhibitor, single point]"
same,Potency,[5],"inconclusive: 2.08 µM [activator, single point]"
c1ccc(C2(c3ccccc3)CC2C2=NCCN2)cc1 (stereo not given),Potency,[6],"inconclusive: 25.1 µM [inhibitor, single point]"
COC(=O)C(c1ccccc1)C1CCCCN1 (stereo not given),Potency,[7],inactive
same,"viability change, negative = cytotoxic",[8],inconclusive: -51% [cytotoxic]
same,Potency,[9],"inconclusive: 63.1 µM [cytotoxic, single point]"
same,Potency,[10],inactive
C[C@]1(O)CC[C@H]2[C@@H]3CCC4=CC(=O)CC[C@]4(C)[C@@]3(F)[C@@H](O)C[C@@]21C,Potency,[11],inactive: > 92 µM
same,Potency,[12],inactive
same,activation,[13],inactive: -0.176%
same,Potency,[14],"inconclusive: 29.8 µM [inhibitor, full curve, poor fit]"
C[N+]1(C)CCCCC1COC(=O)C(O)(c1ccccc1)c1ccccc1 (stereo not given),Potency,[15],inactive
CC(C)NCC(O)c1ccc([N+](=O)[O-])cc1 (stereo not given),Potency,[16],inactive
OCCOc1ccccc1,Potency,[17],inactive
CCCN1CCC[C@H](c2cccc(O)c2)C1,Potency,[18],inactive
same,Potency,[19],"inconclusive: 28.2 µM [inhibitor, partial curve, poor fit] and inconclusive: 15.8 µM [inhibitor, partial curve, poor fit]"
same,Potency,[3],"inconclusive: 12.6 µM [inhibitor, single point]"
same,Potency,[20],inactive
CNC(=O)OCC[N+](C)(C)C,Potency,[2],inactive
same,activity change (ratio),[20],inconclusive: 37.2%
same,Potency,[5],"inconclusive: 11.7 µM [inhibitor, single point]"
O=P(O)(O)C(Cl)(Cl)P(=O)(O)O,Potency,[4],inactive
O=[N+]([O-])c1ccc(F)c([N+](=O)[O-])c1,Potency,[11],active: 46.1 µM
same,Potency,[17],"inconclusive: 79.4 µM [cytotoxic, single point]"
same,Potency,[12],"inconclusive: 39.8 µM [cytotoxic, partial curve]"
same,Potency,[7],"inconclusive: 79.4 µM [cytotoxic, single point]"
same,Potency,[8],"inconclusive: 50.1 µM [cytotoxic, single point]"
same,Potency,[9],"inconclusive: 39.8 µM [cytotoxic, partial curve, poor fit]"
same,Potency,[10],"inconclusive: 35.5 µM [inhibitor, partial curve]"
same,activation,[13],inactive: -1.56%
same,Potency,[14],active: 33.5 µM
CCCCCCC(=O)O[C@H]1CC[C@H]2[C@@H]3CC[C@H]4CC(=O)C=C(C)[C@]4(C)[C@H]3CC[C@]12C,Potency,[15],inactive
CC(C)[C@@]1(NC(=O)[C@@H]2C[C@@H]3c4cccc5[nH]cc(c45)C[C@H]3N(C)C2)O[C@@]2(O)[C@@H]3CCCN3C(=O)[C@H](Cc3ccccc3)N2C1=O,Potency,[1],"inconclusive: 50.1 µM [inhibitor, partial curve]"
same,Potency,[6],"inconclusive: 25.1 µM [inhibitor, single point]"
CC(=O)O[C@H]1C[C@H](O[C@H]2[C@@H](O)C[C@H](O[C@H]3[C@@H](O)C[C@H](OC4CC[C@@]5(C)C(CC[C@@H]6[C@@H]5CC[C@]5(C)[C@@H](C7=CC(=O)OC7)[C@@H](O)C[C@]65O)C4)O[C@@H]3C)O[C@@H]2C)O[C@H](C)[C@H]1O[C@@H]1O[C@H](CO)[C@@H](O)[C@H](O)[C@H]1O (stereo not given in full),Potency,[16],"inconclusive: 1.41 µM [inhibitor, full curve, poor fit]"
C[C@@H](Cc1ccccc1)NCCC(c1ccccc1)c1ccccc1,Potency,[18],inconclusive: 15.8 µM [decreasing]
C[N+]1(C)[C@@H]2CC[C@H]1CC(OC(=O)c1c[nH]c3ccccc13)C2 (stereo not given in full),Potency,[19],"inconclusive: 28.2 µM [inhibitor, partial curve, poor fit]"
